# Out of some 310,000 compounds screened, about 2,200 (0.71%) showed an effect of 50% or more. Effects have a minus sign here. The list shows a part of the results.
# Molecular target: human ether-à-go-go-related gene (hERG) potassium channel (human, UniProt Q12809)
# Test: primary screen, population patch clamp on CHO cells stably expressing hERG
# Chain of human ether-à-go-go-related gene (hERG) potassium channel (Q12809 whole entry, looked up): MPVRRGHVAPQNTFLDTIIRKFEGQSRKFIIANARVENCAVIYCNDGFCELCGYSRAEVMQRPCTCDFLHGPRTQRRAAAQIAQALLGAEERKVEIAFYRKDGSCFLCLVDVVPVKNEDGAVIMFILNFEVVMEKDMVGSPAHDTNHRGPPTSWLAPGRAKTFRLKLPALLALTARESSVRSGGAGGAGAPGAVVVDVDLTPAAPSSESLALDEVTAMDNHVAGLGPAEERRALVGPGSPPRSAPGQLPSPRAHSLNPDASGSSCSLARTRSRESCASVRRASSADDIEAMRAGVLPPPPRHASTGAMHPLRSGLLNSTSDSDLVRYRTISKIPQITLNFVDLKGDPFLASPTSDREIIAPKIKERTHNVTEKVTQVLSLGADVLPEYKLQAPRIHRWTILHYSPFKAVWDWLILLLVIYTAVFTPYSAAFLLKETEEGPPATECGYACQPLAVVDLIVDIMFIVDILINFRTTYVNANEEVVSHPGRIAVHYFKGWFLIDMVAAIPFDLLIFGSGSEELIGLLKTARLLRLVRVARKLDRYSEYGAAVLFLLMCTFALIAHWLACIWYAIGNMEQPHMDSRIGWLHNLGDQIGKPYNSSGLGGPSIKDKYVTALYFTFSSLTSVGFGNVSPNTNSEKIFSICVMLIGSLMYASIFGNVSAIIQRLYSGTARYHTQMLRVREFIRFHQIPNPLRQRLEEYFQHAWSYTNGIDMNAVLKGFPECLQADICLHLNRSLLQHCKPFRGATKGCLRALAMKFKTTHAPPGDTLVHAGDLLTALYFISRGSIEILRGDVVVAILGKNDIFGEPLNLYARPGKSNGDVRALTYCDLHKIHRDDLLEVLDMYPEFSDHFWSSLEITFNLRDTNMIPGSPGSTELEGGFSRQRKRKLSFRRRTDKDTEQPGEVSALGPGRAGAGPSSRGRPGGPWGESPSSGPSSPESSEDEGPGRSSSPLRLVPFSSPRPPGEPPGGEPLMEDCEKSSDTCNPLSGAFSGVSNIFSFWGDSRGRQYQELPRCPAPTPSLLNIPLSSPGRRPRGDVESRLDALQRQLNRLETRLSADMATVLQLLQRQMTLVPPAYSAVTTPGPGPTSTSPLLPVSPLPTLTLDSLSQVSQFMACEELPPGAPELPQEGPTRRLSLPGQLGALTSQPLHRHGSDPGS
row,SMILES,"hERG current change (%, negative = inhibition) at 1uM [%]"
1,Cn1c(-c2ccccc2)cnc1NCc1cccc([N+](=O)[O-])c1,-27.7
2,CC1CCCC(NC(=O)C2CCN(S(=O)(=O)c3cccc4nonc34)CC2)C1C (stereo not shown),7.74
3,Cc1ccc2cccc(NC(=S)NC(=O)c3ccnn3C)c2n1,7.23
4,Cc1cc(=O)n(C2CCS(=O)(=O)C2)[nH]1 (stereo not shown),8.53
5,CC1=Nn2c(nnc2-c2n[nH]c3c2CCC3)SC1,9.88
6,CS(=O)(=O)N1CCN(c2ccccc2NC(=S)NC(=O)c2ccco2)CC1,1.56
7,Clc1ccc(-n2ncc3c(NCc4ccccn4)ncnc32)cc1,11
8,COc1ccc2c3c(c(=O)oc2c1OCC(=O)C(C)(C)C)CCCC3,12.1
9,CN(C)S(=O)(=O)c1ccc(NC(=O)CSc2n[nH]c(=O)n2C2CC2)cc1,22.3
10,CCOC(=O)Cc1csc(NC(=O)/C=C/c2ccco2)n1,11.1
11,Cn1c(=O)c2c(SCC(=O)Nc3ccccc3F)nc(C3CC3)nc2n(C)c1=O,-0.358
12,Nc1cccc(S(=O)(=O)c2ccc(N)c(N)c2)c1,11.1
13,O=C(c1cc(-c2cccs2)on1)N1CCc2ccccc2C1,2.06
14,Clc1c(-c2nnc3n2CCCCC3)sc2ccccc12,-2.64
15,Cc1nnc(SC(C)C(=O)Nc2ccc(S(=O)(=O)NC3CCCCC3)cc2)s1 (stereo not shown),5.66
16,O=C(c1nnc(Cc2ccc(Cl)cc2)o1)N1CCc2ccccc2C1,10.3
17,Cc1occc1C(=O)NNC(=O)c1ccc(Br)o1,16.5
18,CCNC(=O)NC(=O)C(C)On1nnc2ccc(S(=O)(=O)N(CC)CC)cc21 (stereo not shown),11.5
19,COc1ccccc1-c1ocnc1C(=O)N1CCN(S(=O)(=O)c2ccc(NC(C)=O)cc2)CC1,9.96
20,CC(C)[C@H](NC(=O)OCc1ccccc1)C(=O)OCC(=O)NC1(C#N)CCCC1,9.89
21,Cc1cccc(C(C(=O)NC2CCCC2)N(C(=O)c2csnn2)C2CC2)c1 (stereo not shown),-12.7
22,CCOC(=O)c1[nH]c2ccc(OC)cc2c1NC(=S)N1CCN(c2ccccn2)CC1,-4.86

row,SMILES,"hERG current change (%, negative = inhibition) at 1uM [%]"
1,Cc1ccc2cc(C3C(C#N)=C(N)Oc4c3ccc3cccnc43)c(=O)[nH]c2c1 (stereo not shown),-8.42
2,Cc1ccc(S(=O)(=O)CC(=O)c2ccc(C)c([N+](=O)[O-])c2)cc1,8.42
3,COc1ccc(O)c(/C=N/Nc2nc3ccccc3[nH]2)c1,3.48
4,CCOC(=O)c1c(C)[nH]c(C)c1C(=O)CN1C(=O)NC2(CCC(C)CC2)C1=O (stereo not shown),11.3
5,COc1ccccc1NC(=O)CCC(=O)N1CC(C)Oc2ccc(C)cc21 (stereo not shown),11.2
6,CS(=O)(=O)c1ccc(C(=O)NCC(c2ccco2)N2CCCCC2)cc1 (stereo not shown),12.8
7,CC(C)OC(=O)CSc1nnnn1-c1ccc2c(c1)OCCO2,13.1
8,O=C(N/N=C/c1cccc(OCc2ccccc2)c1)c1cccs1,0.137
9,O=C(NCC(=O)N(c1ccccc1)C(C(=O)NC1CCCCC1)c1cccnc1)c1ccco1 (stereo not shown),13.4
10,O=C(c1cnc2n(c1=O)CCS2)N1CCN(C(c2ccccc2)c2ccc(Cl)cc2)CC1 (stereo not shown),0.872
11,c1ccc(CN2CCN(c3nc(-c4ccccc4)nc(-n4ccnc4)n3)CC2)cc1,8.62
12,Cn1c(=O)[nH]c(=O)c2c1nc(SCCCO)n2CCCc1ccccc1,3.8
13,CNC(=O)C1CCN(S(=O)(=O)c2c(C)noc2/C=C/c2ccc(OC)cc2)CC1,1.74
14,CCOC(=O)C1CCN(C(=O)CN(c2ccc3c(c2)OCCO3)S(=O)(=O)c2ccccc2)CC1,-7.68
15,CCCCCCCCCCCCCCCC(=O)NCCO,7.12
16,Cc1ccc2cccc(Oc3ncnc4sc(C)c(C)c34)c2n1,9.58
17,CN(c1ccc(OCC(=O)OCC(=O)Nc2ccccc2)cc1)S(=O)(=O)c1ccc(F)cc1,3.22
18,NC(=O)CC(NC(=O)Cc1cccc2ccccc12)c1ccc(NCCc2cccc(F)c2)c([N+](=O)[O-])c1 (stereo not shown),5.18
19,CCOC(=O)Nc1ccc2c(c1)N(C(=O)CN1CCN3CCCC3C1)c1ccccc1CC2.Cl (stereo not shown),5.09
20,Nc1ccc(S(=O)(=O)N2CCCC2C(=O)O)cc1 (stereo not shown),-0.507
21,Cc1ccc(CNC(=O)[C@H]2C[C@@H]2[C@H](NP(=O)(c2ccccc2)c2ccccc2)c2ccccc2)o1,6.31

# Source: paper PMC4336329 (PLoS ONE, 2015)
